Results published in PubChem BioAssay AID463173 (ICCB-Longwood Screening Facility, Harvard Medical School, 2010).
Out of some 52,000 compounds screened, about 4,300 (8.3%) were called active. Cut-off read from the data, not from the text of the source: active = survival mostly below about 52% (no sharp cut-off); inactive = mostly above about 56%. The list shows a part of the results.

system: DeltatarO mutant; assay: growth inhibition of S. aureus wild type versus tarO mutant, primary screen, teichoic acid synthesis inhibitors, RN4220, OD600 (AID 463173); settings: OD600, 18 h, stronger effect = lower value, screened at 18.75 µg/mL (by protocol)

SMILES	survival
Cc1cc(-n2c(SCc3ccccc3F)nc3[nH]ncc3c2=O)ccc1Cl	inactive: 94%
CC(C)(C)OC(=O)N1CCC(c2nnc(SCc3ccccc3Cl)o2)CC1	active: -1%
COc1ccc(Cl)cc1NC(=O)C(C)n1c(=O)cc(C(F)(F)F)c2c(C)nn(C)c21 (centres undefined)	inactive: 117%
CS(=O)(=O)c1ncc(N(Cc2ccco2)Cc2cccs2)c(C(=O)Nc2ccccc2F)n1	active: 41%
COc1ccccc1CNC(=O)C1CCN(c2ncnc3c2nc2n3CCCCC2)CC1	inactive: 94%
CC(C)CCNC(=O)c1c[nH]c2ccc(S(=O)(=O)Nc3cccc(C(F)(F)F)c3)cc2c1=O	inactive: 74%
CCc1ccc(-n2c3nc(=O)[nH]c(=O)c-3cc3c(C)nn(-c4ccccc4)c32)cc1	inactive: 81%
COc1ccc(C(CNC(=O)c2oc3ccccc3c2C)N2CCCCC2)cc1 (centres undefined)	inactive: 88%
CCc1ccc(NC(=O)Cn2cnc3nc4c(cc3c2=O)CCCC4)cc1	inactive: 128%
CCOC(=O)c1cc2c(=O)n3ccccc3nc2n(CC(C)C)c1=NC(=O)C(C)(C)Oc1ccc(Cl)cc1	active: 31%
COc1ccc(CNC(=O)Cc2c(C)c3c(O)cc(C)cc3oc2=O)cc1	inactive: 66%
Cc1ccc(C)c(N2CCN(C(=O)CCc3c(C)nc4c(c3C)c(=O)n(C)c(=O)n4C)CC2)c1	inactive: 97%
CCN1CCN(C(=O)Cn2c(-c3cccs3)cc3cc(Cl)ccc32)CC1	inactive: 90%
COc1cc(Cl)c(C)cc1NC(=O)c1c(C)oc2nc(C)nc(N3CCCC3)c12	inactive: 99%
Cc1noc(-c2ccc(N3CCCCC3C)c([N+](=O)[O-])c2)n1 (centres undefined)	inactive: 108%
CCc1nnc(NC(=O)CSc2nccn2Cc2ccccc2)s1	inactive: 69%
O=C(Cn1c(-c2cccs2)cc2ccccc21)NCCCN1CCN(c2cccc(Cl)c2)CC1	inactive: 67%
O=C1CCCc2cc(S(=O)(=O)N3CCCC(C(=O)NCc4ccccc4Cl)C3)ccc2N1 (centres undefined)	inactive: 92%
NCc1ccc2[nH]c(=O)[nH]c2c1	inactive: 93%
O=C(NCc1ccccc1)C(c1ccccn1)N(C(=O)c1csnn1)C1CC1 (centres undefined)	inactive: 83%
COc1cccc(CNC(=O)C(Cc2ccccc2)NS(=O)(=O)c2ccc3c(c2)CCN3C(C)=O)c1 (centres undefined)	inactive: 70%
CCOc1ccccc1CNC(=O)c1ccc2c(c1)N(CC)CCS2	inactive: 50%
COc1cc(C(=O)Nc2sc3c(c2C#N)CCCC3)c(Br)c(OC)c1OC	inactive: 75%
Cc1ccc(NC(=O)CCc2nc(-c3ccccc3F)no2)c(C)c1	inactive: 93%
